Assay results published in PMC12820563, “FoxP3 forms a head-to-head dimer in vivo and stabilizes its multimerization on adjacent microsatellites”.
The list shows a part of the results.

target: T1, MBP-FoxP1dN (Mus musculus, UniProt P58462 326-579); test: PD-seq (MBP pull-down with sequencing); 20 mM Tris-HCl pH 7.5, 100 mM NaCl, 1.5 mM MgCl2, 0.4 uM protein, 0.1 uM dsDNA library, 30 min, room temperature, amylose pull-down; high values mean tight binding; conditions: protein: recombinant; tags: His6-MBP; chain copies: 2; dsDNA, one strand shown
T1 sequence: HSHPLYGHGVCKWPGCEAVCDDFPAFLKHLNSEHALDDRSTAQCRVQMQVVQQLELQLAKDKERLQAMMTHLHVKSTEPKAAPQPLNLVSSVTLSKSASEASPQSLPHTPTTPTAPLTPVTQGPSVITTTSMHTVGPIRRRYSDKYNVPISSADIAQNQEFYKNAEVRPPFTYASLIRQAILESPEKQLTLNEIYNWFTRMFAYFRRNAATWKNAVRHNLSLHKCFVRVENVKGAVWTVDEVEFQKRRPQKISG
How it was run: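 Binding is the reads-per-million enrichment of pull-down relative to input, pooled across replicates. For this, 0.4 µM His6-MBP-tagged mouse FoxP3 or FoxP1 fragment lacking the N-terminus, made in E. coli, was incubated with 0.1 µM Klenow-filled double-stranded degenerate DNA library for 30 min at room temperature in Tris pH 7.5 buffer with NaCl and MgCl2. Complexes bound to amylose resin were washed three times before proteinase K released the DNA for PCR barcoding and Illumina sequencing.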

Sequence | binding signal
GATGATTGTTCTCCCAGCTGATGAATTTCCACGCTCGAGTAAACAAATTTTCCTAATCTTTCTGTTCAAGCGCCATCTAC | 0.899 RPM ratio (pull-down/input)
GATGATTGTTCTCCCAGCTGATGAATTGTCAGGATCGAGTAAACAAATTTTCCTAATCTTTCTGTTCAAGCGCCATCTAC | 0.89 RPM ratio (pull-down/input)
GATGATTGTTCTCCCAGCTGATGAATTCCGCCCTTCGAGTAAACAAATTTTCCTAATCTTTCTGTTCAAGCGCCATCTAC | 0.831 RPM ratio (pull-down/input)
GATGATTGTTCTCCCAGCTGATGAATTGTCATATTCGAGTAAACAAATTTTCCTAATCTTTCTGTTCAAGCGCCATCTAC | 1.17 RPM ratio (pull-down/input)
GATGATTGTTCTCCCAGCTGATGAATTGCATACTTCGAGTAAACAAATTTTCCTAATCTTTCTGTTCAAGCGCCATCTAC | 1.23 RPM ratio (pull-down/input)
GATGATTGTTCTCCCAGCTGATGAATTATATACCTCGAGTAAACAAATTTTCCTAATCTTTCTGTTCAAGCGCCATCTAC | 0.983 RPM ratio (pull-down/input)
GATGATTGTTCTCCCAGCTGATGAATTAGGAAACTCGAGTAAACAAATTTTCCTAATCTTTCTGTTCAAGCGCCATCTAC | 0.851 RPM ratio (pull-down/input)
GATGATTGTTCTCCCAGCTGATGAATTGGAACTATCGAGTAAACAAATTTTCCTAATCTTTCTGTTCAAGCGCCATCTAC | 0.868 RPM ratio (pull-down/input)
GATGATTGTTCTCCCAGCTGATGAATTATTTAACTCGAGTAAACAAATTTTCCTAATCTTTCTGTTCAAGCGCCATCTAC | 1.05 RPM ratio (pull-down/input)
GATGATTGTTCTCCCAGCTGATGAATTGACTACCTCGAGTAAACAAATTTTCCTAATCTTTCTGTTCAAGCGCCATCTAC | 0.994 RPM ratio (pull-down/input)
GATGATTGTTCTCCCAGCTGATGAATTGCGGAGCTCGAGTAAACAAATTTTCCTAATCTTTCTGTTCAAGCGCCATCTAC | 0.917 RPM ratio (pull-down/input)
GATGATTGTTCTCCCAGCTGATGAATTAGGCTGCTCGAGTAAACAAATTTTCCTAATCTTTCTGTTCAAGCGCCATCTAC | 0.85 RPM ratio (pull-down/input)
GATGATTGTTCTCCCAGCTGATGAATTGCTAACATCGAGTAAACAAATTTTCCTAATCTTTCTGTTCAAGCGCCATCTAC | 1.33 RPM ratio (pull-down/input)
GATGATTGTTCTCCCAGCTGATGAATTTACAAAATCGAGTAAACAAATTTTCCTAATCTTTCTGTTCAAGCGCCATCTAC | 1.74 RPM ratio (pull-down/input)
GATGATTGTTCTCCCAGCTGATGAATTCTTATTTTCGAGTAAACAAATTTTCCTAATCTTTCTGTTCAAGCGCCATCTAC | 2.25 RPM ratio (pull-down/input)
GATGATTGTTCTCCCAGCTGATGAATTCGTCTCTTCGAGTAAACAAATTTTCCTAATCTTTCTGTTCAAGCGCCATCTAC | 0.871 RPM ratio (pull-down/input)
GATGATTGTTCTCCCAGCTGATGAATTCCAGGAATCGAGTAAACAAATTTTCCTAATCTTTCTGTTCAAGCGCCATCTAC | 0.952 RPM ratio (pull-down/input)
GATGATTGTTCTCCCAGCTGATGAATTGCATCGGTCGAGTAAACAAATTTTCCTAATCTTTCTGTTCAAGCGCCATCTAC | 1.12 RPM ratio (pull-down/input)
GATGATTGTTCTCCCAGCTGATGAATTCATAAGCTCGAGTAAACAAATTTTCCTAATCTTTCTGTTCAAGCGCCATCTAC | 0.847 RPM ratio (pull-down/input)
GATGATTGTTCTCCCAGCTGATGAATTCAGGGTCTCGAGTAAACAAATTTTCCTAATCTTTCTGTTCAAGCGCCATCTAC | 0.838 RPM ratio (pull-down/input)

Sequence | binding signal
GATGATTGTTCTCCCAGCTGATGAATTCTGAAAATCGAGTAAACAAATTTTCCTAATCTTTCTGTTCAAGCGCCATCTAC | 0.958 RPM ratio (pull-down/input)
GATGATTGTTCTCCCAGCTGATGAATTTGAGCCTTCGAGTAAACAAATTTTCCTAATCTTTCTGTTCAAGCGCCATCTAC | 0.834 RPM ratio (pull-down/input)
GATGATTGTTCTCCCAGCTGATGAATTATTAGTCTCGAGTAAACAAATTTTCCTAATCTTTCTGTTCAAGCGCCATCTAC | 1.19 RPM ratio (pull-down/input)
GATGATTGTTCTCCCAGCTGATGAATTACTCACATCGAGTAAACAAATTTTCCTAATCTTTCTGTTCAAGCGCCATCTAC | 1.28 RPM ratio (pull-down/input)
GATGATTGTTCTCCCAGCTGATGAATTGAGCGTATCGAGTAAACAAATTTTCCTAATCTTTCTGTTCAAGCGCCATCTAC | 1.04 RPM ratio (pull-down/input)
GATGATTGTTCTCCCAGCTGATGAATTAGTCCAATCGAGTAAACAAATTTTCCTAATCTTTCTGTTCAAGCGCCATCTAC | 1.07 RPM ratio (pull-down/input)
GATGATTGTTCTCCCAGCTGATGAATTGCAAGCTTCGAGTAAACAAATTTTCCTAATCTTTCTGTTCAAGCGCCATCTAC | 1.05 RPM ratio (pull-down/input)
GATGATTGTTCTCCCAGCTGATGAATTTACGCGATCGAGTAAACAAATTTTCCTAATCTTTCTGTTCAAGCGCCATCTAC | 1.15 RPM ratio (pull-down/input)
GATGATTGTTCTCCCAGCTGATGAATTTCATTGATCGAGTAAACAAATTTTCCTAATCTTTCTGTTCAAGCGCCATCTAC | 1.01 RPM ratio (pull-down/input)
GATGATTGTTCTCCCAGCTGATGAATTGGCCTGCTCGAGTAAACAAATTTTCCTAATCTTTCTGTTCAAGCGCCATCTAC | 0.792 RPM ratio (pull-down/input)
GATGATTGTTCTCCCAGCTGATGAATTAAGGATGTCGAGTAAACAAATTTTCCTAATCTTTCTGTTCAAGCGCCATCTAC | 1.03 RPM ratio (pull-down/input)
GATGATTGTTCTCCCAGCTGATGAATTCCTTGGATCGAGTAAACAAATTTTCCTAATCTTTCTGTTCAAGCGCCATCTAC | 0.821 RPM ratio (pull-down/input)
GATGATTGTTCTCCCAGCTGATGAATTCTTTAGCTCGAGTAAACAAATTTTCCTAATCTTTCTGTTCAAGCGCCATCTAC | 0.805 RPM ratio (pull-down/input)
GATGATTGTTCTCCCAGCTGATGAATTCATGAGGTCGAGTAAACAAATTTTCCTAATCTTTCTGTTCAAGCGCCATCTAC | 0.793 RPM ratio (pull-down/input)
GATGATTGTTCTCCCAGCTGATGAATTCTAAAAATCGAGTAAACAAATTTTCCTAATCTTTCTGTTCAAGCGCCATCTAC | 0.995 RPM ratio (pull-down/input)
GATGATTGTTCTCCCAGCTGATGAATTTAAACTGTCGAGTAAACAAATTTTCCTAATCTTTCTGTTCAAGCGCCATCTAC | 0.848 RPM ratio (pull-down/input)
GATGATTGTTCTCCCAGCTGATGAATTAGGCTGTTCGAGTAAACAAATTTTCCTAATCTTTCTGTTCAAGCGCCATCTAC | 0.939 RPM ratio (pull-down/input)
GATGATTGTTCTCCCAGCTGATGAATTAATTAAATCGAGTAAACAAATTTTCCTAATCTTTCTGTTCAAGCGCCATCTAC | 1.08 RPM ratio (pull-down/input)
GATGATTGTTCTCCCAGCTGATGAATTTCGCTGTTCGAGTAAACAAATTTTCCTAATCTTTCTGTTCAAGCGCCATCTAC | 0.917 RPM ratio (pull-down/input)
GATGATTGTTCTCCCAGCTGATGAATTCAAAGAATCGAGTAAACAAATTTTCCTAATCTTTCTGTTCAAGCGCCATCTAC | 0.95 RPM ratio (pull-down/input)
